Results published in article PMC8245553, “Identification of natural product modulators of Merkel cell carcinoma cell growth and survival” (Scientific Reports, 2021).

Tests used:
[1] = test system: HaCaT immortalized keratinocytes
[2] = test system: VN-MCC and VP-MCC cell lines and HaCaT
[3] = test system: VN-MCC and VP-MCC cell lines and HaCaT; experiment: cells; settings: Homo sapiens, read-out: average IC50
[4] = VP-MCC versus VN-MCC average IC50
[5] = based on average IC50 for VP and VN cell lines
[6] = VN-MCC, VP-MCC and HaCaT cell lines, CellTiterGlo, 3 days

Molecule: O=Nc1ccc(O)c2ncccc12 [5-Nitroso-8-hydroxyquinoline]
- effect on HaCaT control cells ([1]; up to 10 µM): no effect
- VP-MCC selectivity based on average IC50 values [2, 4]: > fivefold
- Selectivity [2, 5]: VP (selectivity for VP-MCC cells which was defined as having an average IC50 < 50% of the VN-MCC average IC50)

Molecule: C[C@@H]1C[C@H](C)C[C@H](C)[C@@H](O)CC(=O)O[C@H]([C@@H]2CCC[C@H]2C(=O)O)C/C=C/C=C(/C#N)[C@H](O)[C@@H](C)C1 [Borrelidin]
- differential effect on cell viability across cell lines (in words) [2]: some specificity for VN-MCC cells
- Selectivity [2, 5]: Uncertain^b

Molecule: CC(C)C[C@H](NC(=O)[C@H](Cc1ccccc1)NC(=O)c1cnccn1)B(O)O [Bortezomib]
- IC50 [3]: 11 nM

Molecule: Nc1nc(Cl)nc2c1ncn2[C@H]1C[C@H](O)[C@@H](CO)O1 [Cladribine]
- differential effect on cell viability across cell lines (in words) [2, 6]: similarly effective for VN-MCC and VP-MCC cell lines
- differential effect on cell viability across cell lines (in words) ([2]; VN-MCC, VP-MCC and HaCaT cell lines, CellTiterGlo, 3 days, listed as cladribine): inactive against MCC26, but active against all of the other MCC lines
- Selectivity [2, 5]: Non

Molecule: Nc1nc(Cl)nc2c1ncn2[C@@H]1O[C@H](CO)[C@@H](O)[C@@H]1F [Clofarabine]
- Selectivity [2, 5]: Non

Molecule: CCN(CC)C(=S)SSC(=S)N(CC)CC [Disulfiram]
- Selectivity [2, 5]: Non

Molecule: COc1cc([C@@H]2c3cc4c(cc3[C@@H](O[C@@H]3O[C@@H]5CO[C@@H](C)O[C@H]5[C@H](O)[C@H]3O)[C@H]3COC(=O)[C@H]23)OCO4)cc(OC)c1O [Etoposide]
- differential effect on cell viability across cell lines (in words) [2, 6]: potently reduced viability of MCC13, but not the other VN-MCC cells and was active against all of the VP-MCC cell lines
- Selectivity [2, 5]: VP (selectivity for VP-MCC cells which was defined as having an average IC50 < 50% of the VN-MCC average IC50)

Molecule: CC[C@](C)(O)C(=O)O[C@H]1C(=O)O[C@@H]2C[C@H]3C(C)=C[C@H](O)[C@@H](O)[C@]3(C)[C@H]3[C@]4(O)OC[C@]32[C@@H]1[C@@H](C)[C@H]4O [Glaucarubin]
- Selectivity [2, 5]: VP (key: selectivity for VP-MCC cells which was defined as having an average IC50 < 50% of the VN-MCC average IC50)

Molecule: CCOC(C)C(C=NNC(N)=S)=NNC(N)=S (stereo not drawn) [Gloxazone, 3-ethoxy-2-oxobutyraldehyde bis(thiosemicarbazone)]
- differential effect on cell viability across cell lines (in words) [2, 6]: similarly effective for VN-MCC and VP-MCC cell lines
- Selectivity [2, 5]: Non

Molecule: CO[C@@]12[C@H](COC(N)=O)C3=C(C(=O)C(C)=C(N)C3=O)N1C[C@@H]1N[C@@H]12 [Mitomycin C]
- Selectivity [2, 5]: VP (selectivity for VP-MCC cells which was defined as having an average IC50 < 50% of the VN-MCC average IC50)

Molecule: Oc1ccc(/C=N/NC(=S)Nc2cccnc2)nc1 [NSC185065]
- differential effect on cell viability across cell lines (in words) [2]: similarly effective for VN-MCC and VP-MCC cell lines

Molecule: Cc1c(O)c(O)c2c(c1O)C(=O)C(Cl)=C(Cl)C2=O [NSC369976]
- effect on HaCaT control cells ([1]; up to 10 µM): no effect
- VP-MCC selectivity based on average IC50 values [2, 4]: > fivefold

Molecule: CC1(C)CCC(c2ccc(Cl)cc2)=C(CN2CCN(c3ccc(C(=O)NS(=O)(=O)c4ccc(N[C@H](CCN5CCOCC5)CSc5ccccc5)c(S(=O)(=O)C(F)(F)F)c4)cc3)CC2)C1 [Navitoclax]
- differential effect on cell viability across cell lines (in words) [2, 6]: significantly higher potency against VP-MCC cell lines with minimal effects on VN-MCC cells and an intermediate potency against HaCaT cells

Molecule: Cc1[nH]c2ccccc2c1CCNCc1ccc(/C=C/C(=O)NO)cc1 [Panobinostat]
- Selectivity [2, 5]: VP (selectivity for VP-MCC cells which was defined as having an average IC50 < 50% of the VN-MCC average IC50)

Molecule: CC1=CC(=O)c2c(O)cccc2C1=O [Plumbagin]
- effect on HaCaT control cells ([1]; up to 10 µM): no effect
- VP-MCC selectivity based on average IC50 values [2, 4]: > fivefold
- Selectivity [2, 5]: VP (key: selectivity for VP-MCC cells which was defined as having an average IC50 < 50% of the VN-MCC average IC50)

Molecule: S=C(S)N1CCCC1 [Pyrrolidinedithiocarbamate]
- differential effect on cell viability across cell lines (in words) [2, 6]: similarly effective for VN-MCC and VP-MCC cell lines
- differential effect on cell viability across cell lines (in words) ([2]; VN-MCC, VP-MCC and HaCaT cell lines, CellTiterGlo, 3 days, listed as PDTC): equipotent against VP-MCC and VN-MCC cells
- Selectivity [2, 5]: Non

Molecule: C/C=C(/C)C(=O)O[C@H]1C(C)=C2[C@H]([C@@H]1OC(=O)CCCCCCC)[C@@](C)(OC(C)=O)C[C@H](OC(=O)CCC)[C@@]1(O)[C@H]2OC(=O)[C@@]1(C)O [Thapsigargin]
- Selectivity [2, 5]: Non?^c

Molecule: Cc1cc(Nc2ncc3c(n2)N(C)C(=O)N(c2cc(NC(=O)c4cccc(C(F)(F)F)c4)ccc2C)C3)n(C)n1 [pluripotin, Pluripotin]
- differential effect on cell viability across cell lines (in words) [2]: preferentially affected VN-MCC and HaCaT cells with little effect on the viability of VP-MCC cells

Molecule: Furoxanobenzofuroxan
- effect on HaCaT control cells [1]: no effect
- Selectivity [2]: VP (key: selectivity for VP-MCC cells which was defined as having an average IC50 < 50% of the VN-MCC average IC50)
- VP-MCC selectivity based on average IC50 values [2]: > fivefold

Read-outs that look alike come from different tables or passages of the source.
